In the supplement of paper PMC3334620:
The full ranking holds about 33,000 sequences; the median of “E-score (-0.5 to 0.5)” is about -0.021, and the highest 2% start at about 0.32. This is one part of the list.

Molecular target: T1, Zap1 (UniProt P47043)
T1 sequence: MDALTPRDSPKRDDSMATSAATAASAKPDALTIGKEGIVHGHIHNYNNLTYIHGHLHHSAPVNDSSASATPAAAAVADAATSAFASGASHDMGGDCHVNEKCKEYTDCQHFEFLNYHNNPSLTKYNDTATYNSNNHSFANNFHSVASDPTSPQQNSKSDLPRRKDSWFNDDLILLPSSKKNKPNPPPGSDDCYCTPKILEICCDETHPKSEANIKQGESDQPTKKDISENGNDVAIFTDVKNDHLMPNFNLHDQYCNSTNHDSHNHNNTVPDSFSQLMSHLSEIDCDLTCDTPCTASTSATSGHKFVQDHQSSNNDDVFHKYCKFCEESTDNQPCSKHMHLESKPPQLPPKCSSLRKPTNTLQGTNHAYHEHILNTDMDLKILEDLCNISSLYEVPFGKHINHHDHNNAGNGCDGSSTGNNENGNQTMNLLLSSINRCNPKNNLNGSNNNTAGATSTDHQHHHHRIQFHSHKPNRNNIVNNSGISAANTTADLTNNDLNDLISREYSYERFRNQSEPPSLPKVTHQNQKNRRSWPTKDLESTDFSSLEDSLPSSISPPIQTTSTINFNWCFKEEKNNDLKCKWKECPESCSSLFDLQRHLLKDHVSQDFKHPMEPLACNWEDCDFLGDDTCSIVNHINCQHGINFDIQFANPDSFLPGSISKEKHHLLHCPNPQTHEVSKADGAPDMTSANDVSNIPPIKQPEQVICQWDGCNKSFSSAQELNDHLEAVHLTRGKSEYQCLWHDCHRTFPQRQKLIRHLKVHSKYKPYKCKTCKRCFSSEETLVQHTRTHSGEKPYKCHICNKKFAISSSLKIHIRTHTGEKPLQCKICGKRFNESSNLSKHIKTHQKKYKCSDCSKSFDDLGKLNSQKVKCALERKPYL
Assay: PBM E-score (8-mer binding enrichment) (E-score (-0.5 to 0.5)); higher = stronger / more preferred TF binding; most listed sequences are background and not binding sites
Conditions: protein concentration: 200 nM; construct: GST-full length
In short: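 Each ungapped eight-base word and its reverse complement, pooled, received an E-score from the Universal PBM Analysis Suite. Underlying scans, normalised with masliner, recorded fluorescent anti-GST bound to GST-tagged yeast transcription factors. These were applied at about 100-200 nM to universal all-10-mer Agilent arrays double-stranded by primer extension.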

Row | Sequence | PBM E-score
1 | ACAAGGGT | 0.387
2 | TCATGGAA | -0.018
3 | AGTAGCAC | -0.148
4 | GGAACTCA | -0.0586
5 | AAGGATAG | -0.00757
6 | CTGACCGC | 0.154
7 | TCATAGGA | -0.0078
8 | ACATGGGT | 0.139
9 | AGCTACGC | -0.21
10 | TAAAGAAA | 0.207
11 | ACGTTAGG | -0.0372
12 | ACGAACGC | -0.0863
13 | CGCGGATA | 0.155
14 | ACTGAAAA | 0.0345
15 | GGTAGTCA | 0.0872
16 | ATCACCAG | 0.132
17 | CTTCTCTC | -0.105
18 | CTTAGCTA | -0.143
19 | ACGCCTCG | -0.175
20 | GCGTTGTA | -0.0902
21 | CCATGAAA | 0.258
22 | CTAGCCAC | -0.171
23 | GTATTCGA | -0.0598
24 | GTGGGCGA | -0.0639
25 | ACGGATCT | -0.163

Row | Sequence | PBM E-score
26 | CCGGAGAC | 0.17
27 | CAGAGGAC | 0.0434
28 | ACTAGTAT | 0.101
29 | ATAGAACC | 0.172
30 | ACAGACCA | 0.134
31 | CTGCACAG | -0.114
32 | AGGGATGG | 0.109
33 | GGGAAGAC | -0.0707
34 | TAGCTAAA | -0.0493
35 | AGTTTTGC | 0.0622
36 | CGGACTAA | 0.093
37 | AATCCCCA | 0.0194
38 | ACGACGCA | -0.0461
39 | CACACCAG | -0.0223
40 | GGTACTAC | 0.305
41 | CTTCGGGC | -0.304
42 | CCACTAAG | 0.225
43 | AGTGGCAT | -0.224
44 | AGTAGCCC | 0.0109
45 | CGCAGTTC | -0.217
46 | GCGAAGCA | -0.121
47 | AGATTTTA | -0.0311
48 | GGAGGACC | -0.202
49 | TATTGGGA | 0.123
50 | CCCGATTA | 0.186

Row | Sequence | PBM E-score
51 | CACCGATG | -0.1
52 | AGGACTGC | -0.307
53 | AGACTCAG | -0.0765
54 | GAATTCAC | 0.0638
55 | GTATCCAA | 0.0926
56 | CCATGTGA | -0.0922
57 | CACCGGAA | 0.0491
58 | TCCAATCA | -0.058
59 | CTCGTTGA | -0.0558
60 | AAATTAGA | 0.114
61 | GAAAGTCC | 0.00246
62 | ATTGACAG | -0.00112
63 | ACCTTTGA | 0.247
64 | ATCCTCAA | 0.118
65 | ACCAGCGA | 0.0676
66 | CGGGTAAC | 0.351
67 | ACGTCATG | -0.101
68 | ATTACGCG | 0.0287
69 | GCAATCGA | -0.181
70 | CAGCCGCA | -0.191
71 | AGATAAAA | 0.194
72 | AATTTCGT | 0.0233
73 | AGTAACGA | 0.0604
74 | AGGAACTC | -0.128
75 | GACACATA | -0.0235

Row | Sequence | PBM E-score
76 | AAGCGACA | -0.236
77 | CGCTTGAG | -0.189
78 | AAGGTAGT | 0.373
79 | AACGCAGC | -0.0978
80 | TCGCTAAA | 0.117
81 | AGGTCCAT | 0.016
82 | CACTCACA | 0.0429
83 | ACTGTTCA | -0.167
84 | CGATATCA | -0.0414
85 | CACCGTCC | -0.206
86 | AATCGCCG | -0.171
87 | GCCGGTGA | 0.0983
88 | CCGACACA | -0.0424
89 | AGGCCGCA | -0.189
90 | ATTATATA | 0.207
91 | GGACTCCA | -0.22
92 | AGAAAACG | -0.0564
93 | CCCCATGA | 0.222
94 | ACCATCCA | -0.112
95 | CCATCAAG | -0.00784
96 | CGTCCGGA | -0.236
97 | ACGTCTAT | -0.101
98 | ATTAAGCG | -0.0207
99 | CCTGGGCA | -0.264
100 | CACGTATA | -0.134

Row | Sequence | PBM E-score
101 | TAACCTCA | 0.418
102 | GCGGTGAA | -0.167
103 | CATCGGAC | -0.0899
104 | AAATCTGA | 0.0458
105 | AGCTATGA | -0.186
106 | AGCGTTCA | -0.326
107 | GGCAAACC | 0.0541
108 | CATACCTC | 0.207
109 | ACTCATCC | -0.0917
110 | AAACAGCC | -0.036
111 | GCTACGAA | -0.00238
112 | ATGATTGG | -0.0726
113 | GCATGTAA | 0.0029
114 | AGCCTGAC | -0.229
115 | ACCTCTCT | 0.0304
116 | ATCAGGCA | -0.143
117 | AACGCTCC | -0.218
118 | GATACCCA | 0.184
119 | GACCCACC | 0.245
120 | AAAGTGAT | 0.0131
121 | CAATCTGG | -0.0575
122 | TAGATCAA | 0.0091
123 | CACATTAA | -0.095
124 | GCACGATA | 0.0752
125 | AAAGCGTA | -0.194

Row | Sequence | PBM E-score
126 | ACTAAAGC | -0.00309
127 | ACTCTCAG | -0.135
128 | ACCCTGCT | 0.277
129 | CGTCGACA | 0.0241
130 | GACAAGCC | -0.134
131 | GGAATTAA | 0.0623
132 | GGTCAGAA | 0.181
133 | CCGGAAAC | -0.0386
134 | CATACAAG | 0.00754
135 | CTCCGAAC | -0.196
136 | ATGTGTTG | 0.164
137 | CCATGAGC | -0.197
138 | AGGCTTGG | -0.185
139 | AACCCGCA | 0.314
140 | GAGTCGAC | -0.158
141 | ATAAATCG | -0.0422
142 | AGAAAGTC | -0.00983
143 | ACATAGTC | -0.102
144 | GGTTGCTA | 0.102
145 | ACCTGTGC | 0.154
146 | GTCTTCGA | -0.069
147 | CGAGTGAG | -0.0546
148 | TCTCCAGA | -0.0829
149 | AAGAGTGA | 0.0335
150 | GCGTCATA | 0.13

Row | Sequence | PBM E-score
151 | AGAACACT | -0.0722
152 | CTACCAAA | 0.185
153 | GACTGGGA | -0.0785
154 | GACAGGGC | -0.0908
155 | ATAGCGAG | -0.152
156 | CTCCCAAC | -0.00146
157 | CTCGTCGC | -0.286
158 | AGGTCAAA | 0.159
159 | ACTCAGCA | -0.203
160 | AGAGGCCA | 0.0111
161 | GACTCCTC | -0.192
162 | AGTGCGAG | -0.201
163 | CCGGGATC | 0.0554
164 | TCGTCTAA | 0.0796
165 | TGTCCCAA | 0.129
166 | AGCCCGAT | -0.149
167 | ATCGTGGG | 0.0813
168 | CGTATCTC | -0.124
169 | ATAGTCTG | -0.0831
170 | AGCGGTAA | 0.167
171 | ATAGGCAC | -0.164
172 | ACTATACG | -0.0651
